{
  "source": "patent US20240248079A1",
  "about": "“IMPROVED UnaG FLUORESCENT PROTEIN FOR BiFC ASSAYS” (THE REGENTS OF THE UNIVERSITY OF CALIFORNIA, priority 2021, published 2024)",
  "key": {"[1]": {"test_system": "MYCN protein in MYCN-amplified neuroblastoma cells (Kelly cells)", "experiment": "MYCN protein levels by western blot", "type": "cell-based", "experimental": "Second, SURF assays for KRas^G12V and Raf1; YAP and TEAD were also developed.\nTo examine whether the identified drugs block MYCN activity in cancer cells, MYCN protein levels were assessed by western blot."}, "wild type KRas with Raf1": {"biological_target": "T1, wild type KRas with Raf1 (Homo sapiens, UniProt P01116)", "T1 construct": "full length KRas and amino acids 50-131 of Raf1; expressed in transfected cells", "T1 sequence (P01116 1-186 isoform P01116-2 limits assumed)": "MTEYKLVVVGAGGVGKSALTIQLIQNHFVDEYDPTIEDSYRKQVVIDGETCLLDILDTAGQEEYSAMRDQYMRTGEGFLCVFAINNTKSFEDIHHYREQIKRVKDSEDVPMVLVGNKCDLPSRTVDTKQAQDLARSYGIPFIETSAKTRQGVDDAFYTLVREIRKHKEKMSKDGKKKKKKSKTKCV", "experiment": "SURF imaging of wild type KRas and Raf1 interaction", "type": "cell-based"}, "[2]": {"biological_target": "KRas G12C mutant and Raf1 interaction (Homo sapiens, UniProt P01116, G12C)", "sequence (P01116 1-186 isoform P01116-2 G12C limits assumed)": "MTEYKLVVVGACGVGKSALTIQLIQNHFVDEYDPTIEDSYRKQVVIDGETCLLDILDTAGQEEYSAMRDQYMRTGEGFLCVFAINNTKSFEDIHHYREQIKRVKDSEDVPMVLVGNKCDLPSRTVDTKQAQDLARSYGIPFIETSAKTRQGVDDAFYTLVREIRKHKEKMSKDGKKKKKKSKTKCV", "experiment": "PPI reporter imaging of KRas G12C mutant and Raf1 interaction"}, "[3]": {"biological_target": "T2, PPI between MYCN and AURKA (Homo sapiens, UniProt O14965)", "T2 construct": "expressed in transfected cells", "T2 sequence (O14965 122-403)": "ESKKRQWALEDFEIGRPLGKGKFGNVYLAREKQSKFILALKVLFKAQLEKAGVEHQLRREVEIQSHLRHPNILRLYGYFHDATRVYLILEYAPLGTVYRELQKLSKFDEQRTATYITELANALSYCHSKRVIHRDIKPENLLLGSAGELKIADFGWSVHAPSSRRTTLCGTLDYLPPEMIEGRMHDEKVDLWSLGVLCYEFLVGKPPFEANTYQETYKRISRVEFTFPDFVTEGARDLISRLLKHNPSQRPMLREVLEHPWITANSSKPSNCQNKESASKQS", "experiment": "SURF reporter of MYCN (1-137) and AURKA (122-403): verification, high throughput screening, time course", "type": "cell-based", "experimental": "To identify clinical drugs that can inhibit the interaction between YAP1 and TEAD, a SURF-based reporter for imaging this PPI was developed. […] Next, a high throughput screening of 1622 FDA-approved drugs (1 μM final concentration) was carried out. […] Here, ten fields-of-view (FOV) were imaged per well (i.e. per drug). The images were analyzed using ImageJ in an automated batch processing to calculate: 1) the SURF fluorescence per one FOV; 2) the co-expressed mCherry fluorescence per FOV; 3) normalized SURF fluorescence by mCherry. Then, we calculated: 1) the fold change of normalized SURF fluorescence (averaged by 10 FOV) for each drug (vs buffer); and 2) the p-value based on 10 FOV for each drug (vs buffer).\nTo identify clinical drugs that can inhibit the interaction between MYCN and AURKA, a SURF-based reporter was developed for imaging this PPI (FIG. 5).\nTo examine how fast the identified drugs inhibit the PPI, the top five drugs were selected for a time course assay."}, "[4]": {"test_system": "neuroblastoma cell lines (Kelly, CHP134, SKNAS)", "experiment": "WST-1 cell proliferation assay", "type": "cell-based", "settings": "WST-1 assay"}},
  "data": [
    {"molecule": "C#CCC(Cc1cnc2nc(N)nc(N)c2n1)c1ccc(C(=O)N[C@@H](CCC(=O)O)C(=O)O)cc1", "note": "(stereo partly shown) [pralatrexate]", "values": [
      {"measurement": "MYCN degradation (MYCN protein level)", "setting": "[1]", "result": "do not degrade MYCN"}
    ]},
    {"molecule": "C=CC(=O)N1CC(N2CCN(C(=O)CNc3cc(C4(C)CC4)c(Cl)cc3O)CC2)C1", "note": "[ARS-853]", "values": [
      {"measurement": "SURF fluorescence upon addition of inhibitor", "setting": "wild type KRas with Raf1", "result": "did not change"},
      {"measurement": "SURF fluorescence upon addition of inhibitor", "setting": "[2]", "result": "fluorescence loss upon addition of ARS-853"}
    ]},
    {"molecule": "CC(=O)O[C@H]1[C@H]2O[C@]23[C@@H]2CC[C@]4(O)C[C@@H](O)CC[C@]4(C)[C@H]2CC[C@]3(C)[C@H]1c1ccc(=O)oc1", "note": "[cinobufotalin]", "values": [
      {"measurement": "OFF time of PPI inhibition (T1/2 off, half-to-maximum time)", "setting": "[3]; time course assay in living cells", "result": "~2", "unit": "h"},
      {"measurement": "anti-proliferation effect", "setting": "[4]", "result": "stronger effect on anti-proliferation than cabozantinib"}
    ]},
    {"molecule": "O=C(Nc1ccc(Nc2nccc(Nc3cc(C4CCCC4)[nH]n3)n2)cc1)Nc1cccc(C(F)(F)F)c1", "note": "[CD532]", "values": [
      {"measurement": "effect on PPI / SURF fluorescence", "setting": "[3]; cSURF-MYCN (1-137), nSURF-AURKA (122-403)", "result": "detected dissociation of these two proteins"},
      {"measurement": "anti-proliferation effect", "setting": "[4]", "result": "showed anti-proliferation effects"}
    ]}
  ]
}
